Laboratory results published in PubChem BioAssay AID588453 (National Center for Advancing Translational Sciences (NCATS), 2011).
The whole screen tested about 390,000 compounds, of which about 4,000 (1%) were called active. Inconclusive means that the source gave no clear call. Such entries were picked first, then a sample of the others. The call rests on the fitted dose curve; in most records, active means well fitted inhibition curve with a large enough effect; inconclusive means small, poorly fitted or top-dose-only effect; inactive means no such curve, though single readings can be large or run the other way. Potencies beside an inconclusive call are fits to weak or partial responses and may not hold up.

biological target: Thioredoxin reductase 1, cytoplasmic (Rattus norvegicus) (UniProt O89049); assay: qHTS Assay for Inhibitors of Mammalian Selenoprotein Thioredoxin Reductase 1 (TrxR1): qHTS; conditions: recombinant rTrxR1, NADPH fluorescence consumption, selenite substrate; series mostly up to 114 µM; further: nearly all actives have a fitted effect of over 65% in size
How it was run: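 Rat TrxR1 (90 nM in the dispensed reagent) was pre-reduced with 400 uM NADPH for 5 min at room temperature, then incubated with compound for 15 min. After 400 uM selenite was added, NADPH fluorescence (Ex 340/Em 450 nm) was followed for 8 min.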
Potency means the concentration at half of the fitted maximal effect; tags describe the fitted curve by direction and shape.

UniProt O89049, sequence (O89049 whole entry, looked up): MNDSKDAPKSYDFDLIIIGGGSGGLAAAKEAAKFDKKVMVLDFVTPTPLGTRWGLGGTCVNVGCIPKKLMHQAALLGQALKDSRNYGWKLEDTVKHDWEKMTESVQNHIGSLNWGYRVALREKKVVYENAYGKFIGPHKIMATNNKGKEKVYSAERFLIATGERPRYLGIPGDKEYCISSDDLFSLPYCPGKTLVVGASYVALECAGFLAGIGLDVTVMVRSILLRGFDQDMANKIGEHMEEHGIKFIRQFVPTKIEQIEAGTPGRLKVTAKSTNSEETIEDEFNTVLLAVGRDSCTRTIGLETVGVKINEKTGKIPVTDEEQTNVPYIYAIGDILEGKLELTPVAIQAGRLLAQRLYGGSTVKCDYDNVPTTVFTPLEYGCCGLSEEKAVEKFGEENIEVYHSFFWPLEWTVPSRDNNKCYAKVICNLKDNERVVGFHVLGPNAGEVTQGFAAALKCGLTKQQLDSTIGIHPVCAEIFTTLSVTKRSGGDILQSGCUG

Question: For `COc1cc(S(=O)(=O)NCc2ccccc2Cl)ccc1-n1cnnn1`, which Potency is on record?
Answer: The Potency was inconclusive: 0.794 µM [inhibitor, full curve, poor fit].

Question: Which Potency does the source give for `COC(=O)C1=C(C)NC(=O)/C1=C\N(C)C` here?
Answer: The Potency was active: 15.8 µM.

Question: For `Cc1cc2c(NC(=O)Nc3ccc(F)cc3)cccc2nn1`, which Potency is on record?
Answer: The Potency was “inactive”.

Question: Which Potency does the source give for `c1coc(Cn2nnnc2CN2CCN(C3CCCCC3)CC2)c1` here?
Answer: Its Potency is inconclusive: 89.1 µM [inhibitor, partial curve, poor fit].

Question: For `CCOC(=O)/C(=C\c1cccc(O)c1)c1nc2sc(C)c(C)c2c(=O)[nH]1`, which Potency is on record?
Answer: Its Potency is inconclusive: 3.16 µM [inhibitor, full curve, poor fit].

Question: `O=C(Nc1ccc2c(c1)OCCO2)NC1(C(F)(F)F)Oc2ccccc2O1` was tested. Which Potency did it give?
Answer: The Potency was inconclusive: 89.1 µM [inhibitor, partial curve, poor fit].

Question: With `C#CCOCCOCCOCCNc1nc(N2CCN(C(=O)[C@H](CO)n3cc([C@@H](N)C(C)C)nn3)CC2)nc(N2CCN(C(=O)[C@H](CCCCN)n3cc([C@@H](N)[C@H](C)CC)nn3)CC2)n1` as the compound, how does the Potency read?
Answer: The Potency was inconclusive: 28.2 µM [inhibitor, single point].

Question: For `NC(=O)c1ccccc1NC(=S)NC(=O)c1ccc(Br)o1`, which Potency is on record?
Answer: The Potency was active: 25.1 µM.

Question: Which Potency does the source give for `CC1(OC(=O)CCc2ccccc2)C(=O)C=C2C=C(c3ccc(C#N)cc3)N(CC3CC3)C=C2C1=O` (centres undefined) here?
Answer: The Potency was inconclusive: 39.8 µM [inhibitor, partial curve].

Question: With `Cc1ccc(-n2c(=O)cc(N3CC(C)OC(C)C3)[nH]c2=O)cc1` (centres undefined) as the compound, how does the Potency read?
Answer: Its Potency is inconclusive: 25.1 µM [inhibitor, partial curve, poor fit].

Question: How did the Potency turn out when `CCOC(=O)C1CCCN(C(=O)CCS(=O)(=O)c2cc3c(cc2Cl)NC(=O)CO3)C1` (centres undefined) was run?
Answer: Its Potency is “inactive”.

Question: `O=c1[nH]nc(Sc2ncnc3sccc23)n1CCc1ccccc1` was tested. Which Potency did it give?
Answer: The Potency was inconclusive: 12.6 µM [inhibitor, partial curve].

Question: Which Potency does the source give for `Cc1onc(-c2ccccc2)c1C(=O)NC(=S)Nc1sc2c(c1C#N)CCC(C)C2` (centres undefined) here?
Answer: Its Potency is inconclusive: 6.31 µM [inhibitor, full curve].

Question: Which Potency does the source give for `Nc1cccc2c1C(=O)N(C(=O)/C=C/c1ccc(F)cc1)C2=O` here?
Answer: Its Potency is inconclusive: 17.8 µM [inhibitor, partial curve].

Question: `CN1/C(=C\C(=S)Nc2ccccc2)C(C)(C)c2ccccc21` was tested. Which Potency did it give?
Answer: Its Potency is inconclusive: 39.8 µM [inhibitor, partial curve].

Question: `CCOc1cc(/C=N/O)cc(Br)c1OCC` was tested. Which Potency did it give?
Answer: The Potency was “inactive”.

Question: How did the Potency turn out when `CCOC(=O)C(=Cc1cn(C)c2ccc(S(=O)(=O)N(C)C)cc12)C(=O)OCC` was run?
Answer: The Potency was inconclusive: 14.1 µM [inhibitor, full curve, poor fit].

Question: For `Cc1c(Br)cnc2ccccc12`, which Potency is on record?
Answer: Its Potency is inconclusive: 79.4 µM [inhibitor, single point].

Question: `O=C(CN1c2ccccc2Sc2ccccc21)NNC(=S)Nc1ccc(Cl)cc1` was tested. Which Potency did it give?
Answer: The Potency was “inactive”.

Question: `CC(=O)OCCNc1cc(SCc2ccco2)c2nonc2c1[N+](=O)[O-]` was tested. Which Potency did it give?
Answer: Its Potency is active: 22.4 µM.

Question: For `N#C/C(=C\c1ccccc1)C(=O)NNS(=O)(=O)c1ccc(Br)cc1`, which Potency is on record?
Answer: Its Potency is inconclusive: 39.8 µM [inhibitor, single point].

Question: `COc1ccc(CC(=O)Nc2nc(C(C)(C)C)cs2)cc1` was tested. Which Potency did it give?
Answer: Its Potency is “inactive”.

Question: Which Potency does the source give for `O=C(Nc1ccccc1-c1nc2ccccc2[nH]1)c1ccc(S(=O)(=O)N2CCCCC2)cc1` here?
Answer: The Potency was “inactive”.

Question: How did the Potency turn out when `Oc1c(C(Nc2nc3ccccc3s2)c2ccco2)ccc2cccnc12` (centres undefined) was run?
Answer: The Potency was inconclusive: 44.7 µM [inhibitor, partial curve, poor fit].

Question: `O=C(CSc1nnc(-c2cccnc2)o1)Nc1ccc(Br)cc1` was tested. Which Potency did it give?
Answer: Its Potency is inconclusive: 89.1 µM [inhibitor, single point].

Question: How did the Potency turn out when `COc1ccc(NC(=O)c2cc(S(=O)(=O)NCCC3=CCCCC3)ccc2F)cc1` was run?
Answer: Its Potency is “inactive”.

Question: Which Potency does the source give for `O=C(c1cnc(N2CCCCC2)c2ccccc12)N1CCN(c2ccc(Cl)cc2)CC1` here?
Answer: The Potency was “inactive”.

Question: `COc1ccc(OC)c(NC(=O)C23CCC(C)(C(=O)O2)C3(C)C)c1` (centres undefined) was tested. Which Potency did it give?
Answer: The Potency was inconclusive: 3.16 µM [inhibitor, partial curve, poor fit].

Question: How did the Potency turn out when `O=C(CC(Nc1ccccc1Cl)C(=O)O)c1ccccc1` (centres undefined) was run?
Answer: The Potency was active: 4.47 µM.

Question: How did the Potency turn out when `COc1ccccc1CNC(=O)c1ccoc1C` was run?
Answer: Its Potency is inconclusive: 20 µM [inhibitor, full curve].

Question: `CCCC(=O)C1=C(c2cccc(OC)c2)N(C(=O)CCC)n2c(C)nnc2S1` was tested. Which Potency did it give?
Answer: The Potency was “inactive”.

Question: `Cn1c(SCC(=O)Nc2nccs2)nnc1-c1ccc(S(=O)(=O)N2CCCC2)cc1` was tested. Which Potency did it give?
Answer: Its Potency is “inactive”.

Question: How did the Potency turn out when `CCOC(=O)c1ccc2c(c1)[C@@H]1C=CC[C@@H]1[C@H](c1cccc(OC)c1OC)N2` was run?
Answer: Its Potency is “inactive”.

Question: With `Cn1c(=O)c2ccccc2n2c(CCl)nnc12` as the compound, how does the Potency read?
Answer: The Potency was inconclusive: 39.8 µM [inhibitor, partial curve, poor fit].

Question: Which Potency does the source give for `C=CCC(CC=C)(NC(=O)c1ccccc1C)c1ccccc1` here?
Answer: Its Potency is “inactive”.

Question: Which Potency does the source give for `CCOC(=O)COc1ccc(CC)cc1C(=O)c1ccn2nc(-c3ccc(Cl)cc3)cc2n1` here?
Answer: Its Potency is “inactive”.

Question: With `Cc1ccc(S(=O)(=O)c2nnn3c2nc(N2CCC(C(N)=O)CC2)c2ccccc23)cc1` as the compound, how does the Potency read?
Answer: Its Potency is inconclusive: 89.1 µM [inhibitor, single point].

Question: How did the Potency turn out when `COC(=O)[C@H](CC(C)C)N1Cc2cc(OC)cc(OC)c2-c2ccccc2S1(=O)=O` was run?
Answer: Its Potency is inconclusive: 22.4 µM [inhibitor, full curve].

Question: With `Cc1cn(C2OC(COC(=O)c3ccccc3)C(OC(=O)c3ccccc3)C2OC(=O)c2ccccc2)c(=O)[nH]c1=O` (centres undefined) as the compound, how does the Potency read?
Answer: Its Potency is “inactive”.

Question: With `CCCCS(=O)(=O)c1oc(-c2ccc(F)cc2)nc1S(=O)(=O)c1ccccc1` as the compound, how does the Potency read?
Answer: Its Potency is active: 1.12 µM.

Question: How did the Potency turn out when `Cc1cc(CNCc2c(C(=O)N(C)Cc3ccccc3)nc3ccccn23)nn1C` was run?
Answer: Its Potency is inconclusive: 39.8 µM [inhibitor, full curve].

Question: `Nc1nonc1-n1nnc(C(=O)N/N=C/c2ccc(OCc3ccccc3)cc2)c1COc1ccc(F)cc1` was tested. Which Potency did it give?
Answer: The Potency was “inactive”.

Question: Which Potency does the source give for `COCCNC(C)C(=O)C12CC3CC(CC(C3)C1)C2` (centres undefined) here?
Answer: Its Potency is inconclusive: 39.8 µM [inhibitor, single point].

Question: `Cc1ccc(NC(=O)c2cc(S(=O)(=O)N(C)C)ccc2N2CCCC2)cc1F` was tested. Which Potency did it give?
Answer: The Potency was “inactive”.

Question: Which Potency does the source give for `Cc1onc(-c2c(Cl)cccc2Cl)c1C(=O)N=C(N)N1CC(C)OC(C)C1` (centres undefined) here?
Answer: Its Potency is inconclusive: 89.1 µM [inhibitor, single point].

Question: For `CC1(C)CC(=O)C2=C(C1)NC1=C(C(=O)c3ccccc31)C2c1ccc(O)cc1` (centres undefined), which Potency is on record?
Answer: Its Potency is inconclusive: 17.8 µM [inhibitor, partial curve, poor fit].

Question: How did the Potency turn out when `O=C(COC(=O)/C=C/c1ccco1)NCc1ccco1` was run?
Answer: The Potency was inconclusive: 35.5 µM [inhibitor, partial curve].

Question: How did the Potency turn out when `CC(=O)c1cccc(NC(=O)CCS(=O)(=O)c2cccc3nsnc23)c1` was run?
Answer: The Potency was inconclusive: 11.2 µM [inhibitor, partial curve, poor fit].

Question: For `O=C(CN1CCN(Cc2ccccc2)CC1)N/N=C\C=C/c1ccco1`, which Potency is on record?
Answer: The Potency was inconclusive: 70.8 µM [inhibitor, partial curve].

Question: With `O=C(CC1C(=O)NCCN1Cc1ccccc1C(F)(F)F)NC1CCC1` (centres undefined) as the compound, how does the Potency read?
Answer: The Potency was inconclusive: 56.2 µM [inhibitor, partial curve, poor fit].

Question: With `O=C(NCc1ccco1)C(Cc1ccccc1)NS(=O)(=O)c1cccc2nsnc12` (centres undefined) as the compound, how does the Potency read?
Answer: The Potency was inconclusive: 39.8 µM [inhibitor, single point].

Question: `CCn1c(=O)cc(N2CCC3(CC2)OCCO3)[nH]c1=O` was tested. Which Potency did it give?
Answer: The Potency was inconclusive: 7.94 µM [inhibitor, full curve].

Question: With `O=C(NCc1cccnc1)/C(=C\c1ccc(-c2ccc(Br)cc2)o1)S(=O)(=O)c1ccccc1` as the compound, how does the Potency read?
Answer: The Potency was active: 31.6 µM.

Question: With `O=C1NC(=O)C(=Cc2ccc(Cl)cc2Cl)S1` as the compound, how does the Potency read?
Answer: Its Potency is inconclusive: 79.4 µM [inhibitor, single point].

Question: For `CCC(OC(=O)CC1Sc2ccccc2NC1=O)C(=O)NCC1CCCO1` (centres undefined), which Potency is on record?
Answer: Its Potency is inconclusive: 20 µM [inhibitor, partial curve, poor fit].

Question: Which Potency does the source give for `Cc1ccccc1-c1cc(C(=O)NCc2ccco2)n(CC2CC(c3cccnc3)=NO2)n1` (centres undefined) here?
Answer: The Potency was inconclusive: 70.8 µM [inhibitor, partial curve].

Question: With `COc1ccc(N2C(=NC(=O)CC3CCCCC3)SC3CS(=O)(=O)CC32)cc1` (centres undefined) as the compound, how does the Potency read?
Answer: The Potency was inconclusive: 89.1 µM [inhibitor, single point].

Question: How did the Potency turn out when `Cc1cc(C)cc(NC(=O)CCCn2c(=O)c3cccn3c3ccccc32)c1` was run?
Answer: The Potency was “inactive”.

Question: How did the Potency turn out when `Cc1nn(C(C)C(=O)NCCN2CCCCCC2)c(=O)c2nn(-c3ccccc3)c(C)c12` (centres undefined) was run?
Answer: The Potency was inconclusive: 31.6 µM [inhibitor, partial curve].

Question: How did the Potency turn out when `CCOC(=O)c1ccc(N/C=C\C(=O)c2cccc(OC)c2)cc1` was run?
Answer: The Potency was inconclusive: 35.5 µM [inhibitor, full curve].

Question: `COC(=O)N/N=C1\CCCc2ccccc21` was tested. Which Potency did it give?
Answer: Its Potency is “inactive”.

Question: With `Cc1ccc(S(=O)(=O)N(C)C)cc1NC(=O)COc1ccccc1C(=O)Nc1ccccc1` as the compound, how does the Potency read?
Answer: The Potency was “inactive”.

Question: `CCCOc1ccc(C2C(C(=O)c3ccc(C)o3)=C(O)C(=O)N2Cc2ccco2)cc1OCC` (centres undefined) was tested. Which Potency did it give?
Answer: Its Potency is inconclusive: 44.7 µM [inhibitor, partial curve].

Question: How did the Potency turn out when `Cc1oc(-c2cccc(Cl)c2)nc1CSCC(=O)NCc1ccccc1Cl` was run?
Answer: Its Potency is “inactive”.

Question: With `CCOc1ccc(C(=O)CC(C(=O)O)N2CCCCC2)cc1` (centres undefined) as the compound, how does the Potency read?
Answer: The Potency was active: 14.1 µM.

Question: For `CCc1nn2c(=O)cc(COc3cccc(NC(=O)c4ccco4)c3)nc2s1`, which Potency is on record?
Answer: The Potency was inconclusive: 79.4 µM [inhibitor, single point].

Question: With `CSc1ncc(C(=O)NCc2ccc(C)cc2)c(-c2ccccc2)n1` as the compound, how does the Potency read?
Answer: Its Potency is “inactive”.

Question: For `O=C1CSC(=S)N1/N=C/c1c(F)cccc1F`, which Potency is on record?
Answer: Its Potency is inconclusive: 50.1 µM [inhibitor, partial curve].

Question: How did the Potency turn out when `Cc1ncc(CO)c2cc(S(=O)(=O)c3ccc(F)cc3)c(=O)oc12` was run?
Answer: Its Potency is inconclusive: 28.2 µM [inhibitor, full curve].
